In PubChem BioAssay (Tox21):
Several values for one entry are separate records, joined by “and”; a condition that tells them apart may be missing. Equal entries are not always repeated. This list was built around the results that the source calls inconclusive (neither active nor inactive); the mix of calls is not that of the screen. For some of these results: Where the call is inconclusive, the potency comes from a doubtful curve fit. Some compounds were tested as several samples or in several runs, with calls that do not always agree. Activity calls are given as the source filed them. Unless noted, the call rests on the fitted dose curve; in most records, active means well fitted curve in the direction sought with a large enough effect in the repeat runs; inconclusive means weak or mixed curves; inactive means no such curve, though single readings can be large; an effect the other way counts as inactive or inconclusive.

How the values were obtained:
[1] = qHTS RealTime-Glo MT Cell Viability Assay in HEK293 cells - 24 hour (AID 1224886); further: nearly all actives have a fitted effect of over 50% in size; further: potency means the concentration at half of the fitted maximal effect
How it was run: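 Viability tracked continuously by luminescence as live cells reduce a prosubstrate for NanoLuc; HEK293 cells preincubated 5 h, compound-treated at 37 C, and read at 0, 8, 16, 24, 32 and 40 h.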

[2] = qHTS RealTime-Glo MT Cell Viability Assay in HEK293 cells - 8 hour (AID 1224887); further: potency means the concentration at half of the fitted maximal effect; nearly all actives have a fitted effect of over 50% in size
How it was run: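 Real-time viability in HEK293: signal arises when living cells convert a prosubstrate for NanoLuc in the medium, so luminescence tracks viable cell number. Compound (23 nL, DMSO) added 5 h post-seeding; kinetic reads at 0–40 h, 37 C.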

[3] = biological target: Androgen receptor (Homo sapiens) (UniProt P10275); test: qHTS assay to identify small molecule antagonists of the androgen receptor (AR) signaling pathway using the MDA cell line in the presence of 0.5 nM R1881 (AID 1259243); further: potency means the concentration at half of the fitted maximal effect; nearly all actives have a fitted effect of over 50% in size
How it was run: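 Stably transfected MDA-kb2 cells express luciferase from an MMTV promoter bearing both AR and GR response elements. Compounds plus 0.5 nM R1881 (final) were incubated 16 hr at 37C without CO2, then luminescence measured.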

[4] = qHTS assay to identify small molecule antagonists of the sonic hedgehog signaling (Shh) pathway (AID 1259369; calls by dose curve; further: potency means the concentration at half of the fitted maximal effect; nearly all actives have a fitted effect of over 45% in size)
How it was run: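 Cells are plated and held 4hr at 37 C, compounds (DMSO) are pinned in, conditioned medium is added to stimulate the pathway, and after 24hr luciferase reagent is added for 30min before luminescence is read.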

[5] = qHTS assay to identify small molecule antagonists of the estrogen receptor alpha (ER-alpha) signaling pathway using the BG1 cell line in the presence of 0.1 nM 17-beta-estradiol - cell viability counter screen (AID 1259241); further: potency means the concentration at half of the fitted maximal effect; nearly all actives have a fitted effect of over 40% in size
How it was run: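 VM7Luc4E2, 4,000 cells/well, phenol red-free medium + 10% charcoal-stripped FBS; 24 hr plating; cpd + 0.1 nM E2 final, 22 hr 37C/5% CO2; CellTiter-Fluor 30 min, fluorescence.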

[6] = qHTS assay to identify small molecule agonists of the sonic hedgehog signaling (Shh) pathway - cell viability counter screen (AID 1259366); further: potency means the concentration at half of the fitted maximal effect; nearly all actives have a fitted effect of over 50% in size
How it was run: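 Cytotoxicity counter screen run in the same wells as the Shh reporter assay. NIH/3T3 cells carrying a Gli1 response element–driven luciferase were treated with DMSO-dissolved compounds for 24hr, and live-cell protease activity was measured with CellTiter-Fluor.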

[7] = biological target: Estrogen receptor beta (Homo sapiens) (UniProt Q92731); test: qHTS assay to identify small molecule agonists of the estrogen receptor beta (ER-beta) signaling pathway (AID 1259377; active means well fitted activation curve with a large enough effect in the signal ratio in the repeat runs, not every such curve was filed as active; inconclusive means weak or mixed curves, or effect the other way; the % refers to the signal ratio; further: potency means the concentration at half of the fitted maximal effect); conditions: ER-beta-UAS-bla HEK293T, beta-lactamase FRET ratio, 16 h; activation: at 92.4 µM (top of the series) unless noted
How it was run: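 HEK293T ER-beta-UAS-bla; 2% charcoal-stripped FBS; cells pre-incubated 6 hr, compound 16 hr, 37C/5% CO2; LiveBLAzer B/G FRET substrate 2 h RT; fluorescence intensity read.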

[8] = A CellTox Green Cytotoxicity Assay to monitor cytotoxicity in HEK293 cells - 16 hour (AID 1224888); further: nearly all actives have a fitted effect of over 35% in size
How it was run: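 Cells (HEK293, 600/well) and dye reagent are dispensed together. After 5 h at 37 C, 23 nL compound is pinned in. Plates stay at 37 C for 40 h with fluorescence read at 0h, 8h, 16h, 24h, 32h and 40h.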

[9] = A CellTox Green Cytotoxicity Assay to monitor cytotoxicity in HepG2 cells - 8 hour (AID 1224890); further: nearly all actives have a fitted effect of over 45% in size
How it was run: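 Cells and non-lytic dye reagent are dispensed together (600 HepG2 cells/well) and incubated 5 h before DMSO compound transfer. Kinetic fluorescence is then recorded in the same wells during 40 h at 37 C.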

[10] = qHTS assay to identify small molecule agonists of the sonic hedgehog signaling (Shh) pathway (AID 1259368; calls by dose curve; further: potency means the concentration at half of the fitted maximal effect; nearly all actives have a fitted effect of over 15% in size)
How it was run: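 Cells of a mouse NIH/3T3 clone stably expressing luciferase under the Gli1 transcriptional response element are exposed to test chemicals for 24 hr at 37 C. Pathway activation is detected as a rise in luminescence.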

[11] = qHTS RealTime-Glo MT Cell Viability Assay in HepG2 cells - 0 hour (AID 1224889)
How it was run: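 Viability was tracked continuously by NanoLuc luminescence from prosubstrate reduced by living HepG2 cells, at successive time points over 40 h of compound exposure. Cells with reagent were preincubated 5 h at 37 °C before compound addition.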

[12] = qHTS assay to identify small molecule antagonists of the androgen receptor (AR) signaling pathway using the MDA cell line in the presence of 0.5 nM R1881 - cell viability counter screen (AID 1259242); further: potency means the concentration at half of the fitted maximal effect; nearly all actives have a fitted effect of over 45% in size
How it was run: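 Steps: plate MDA-kb2 cells, rest 5 hr at 37C without CO2; pin in compounds in DMSO; add R1881 to 0.5 nM final; incubate 16 hr; add CellTiter-Fluor, 30 min; read fluorescence.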

[13] = qHTS assay to identify small molecule antagonists of the sonic hedgehog signaling (Shh) pathway - cell viability counter screen (AID 1259367); further: potency means the concentration at half of the fitted maximal effect; nearly all actives have a fitted effect of over 55% in size
How it was run: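 Tox21 library chemicals were tested on a Gli1-Luc NIH/3T3 clone (2,000 cells/well) stimulated by conditioned medium; viability was quantified as fluorescence from CellTiter-Fluor reagent added at 23 hr.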

[14] = biological target: Estrogen receptor (Homo sapiens) (UniProt P03372); test: qHTS assay to identify small molecule antagonists of the estrogen receptor alpha (ER-alpha) signaling pathway using the BG1 cell line in the presence of 0.1 nM 17-beta-estradiol (AID 1259244)
How it was run: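 Antagonist mode: compounds in DMSO are pinned onto VM7Luc4E2 reporter cells, 0.1 nM final 17beta-estradiol is added, and after 22 h at 37C luciferase luminescence is measured with ONE-Glo.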

[15] = qHTS assay to identify small molecule HDAC inhibitors (AID 1259364);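 further: wild-type HCT-116 cells with endogenous class I/II HDAC activity; potency means the concentration at half of the fitted maximal effect; nearly all actives have a fitted effect of over 45% in size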
How it was run: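 Cells (HCT-116, wild type) are seeded at 1,500 per well, incubated overnight, treated with compound in DMSO for 2 hr, then developed with HDAC-Glo I/II reagent for 30 min at room temperature.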

[16] = qHTS assay to identify small molecule phospholipidosis (PLD) inducers (AID 1259344; active means well fitted curve in the direction sought with a large enough effect; inconclusive means small, poorly fitted or top-dose-only effect, or another doubt; inactive means no such curve, though single readings can be large; an effect the other way counts as inactive or inconclusive; further: potency means the concentration at half of the fitted maximal effect)
How it was run: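 Image-based: LipidTOX Red pit count/intensity per well and per cell; HepG2, 24 h compound at 37 C, PFA fixation, Hoechst counterstain.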
Tags describe the fitted curve by direction and shape or compound fluorescence and quenching.

Chain of UniProt Q92731 (Q92731 whole entry, looked up): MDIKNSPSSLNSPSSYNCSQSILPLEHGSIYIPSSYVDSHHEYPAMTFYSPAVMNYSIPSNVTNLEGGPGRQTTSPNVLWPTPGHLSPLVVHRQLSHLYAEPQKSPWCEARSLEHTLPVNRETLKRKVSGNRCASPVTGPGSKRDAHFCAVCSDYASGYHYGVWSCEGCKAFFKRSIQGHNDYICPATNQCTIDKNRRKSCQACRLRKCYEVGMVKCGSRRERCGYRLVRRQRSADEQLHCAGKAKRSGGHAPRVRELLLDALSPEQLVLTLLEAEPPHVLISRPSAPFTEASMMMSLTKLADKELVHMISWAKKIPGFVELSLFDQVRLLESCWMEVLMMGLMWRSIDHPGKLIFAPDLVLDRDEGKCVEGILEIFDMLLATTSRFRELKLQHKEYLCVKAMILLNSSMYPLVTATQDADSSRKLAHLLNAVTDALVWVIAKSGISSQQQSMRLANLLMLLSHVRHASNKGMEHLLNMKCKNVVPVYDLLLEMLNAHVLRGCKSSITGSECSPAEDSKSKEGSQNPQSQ
Chain of UniProt P10275 (P10275 whole entry, looked up): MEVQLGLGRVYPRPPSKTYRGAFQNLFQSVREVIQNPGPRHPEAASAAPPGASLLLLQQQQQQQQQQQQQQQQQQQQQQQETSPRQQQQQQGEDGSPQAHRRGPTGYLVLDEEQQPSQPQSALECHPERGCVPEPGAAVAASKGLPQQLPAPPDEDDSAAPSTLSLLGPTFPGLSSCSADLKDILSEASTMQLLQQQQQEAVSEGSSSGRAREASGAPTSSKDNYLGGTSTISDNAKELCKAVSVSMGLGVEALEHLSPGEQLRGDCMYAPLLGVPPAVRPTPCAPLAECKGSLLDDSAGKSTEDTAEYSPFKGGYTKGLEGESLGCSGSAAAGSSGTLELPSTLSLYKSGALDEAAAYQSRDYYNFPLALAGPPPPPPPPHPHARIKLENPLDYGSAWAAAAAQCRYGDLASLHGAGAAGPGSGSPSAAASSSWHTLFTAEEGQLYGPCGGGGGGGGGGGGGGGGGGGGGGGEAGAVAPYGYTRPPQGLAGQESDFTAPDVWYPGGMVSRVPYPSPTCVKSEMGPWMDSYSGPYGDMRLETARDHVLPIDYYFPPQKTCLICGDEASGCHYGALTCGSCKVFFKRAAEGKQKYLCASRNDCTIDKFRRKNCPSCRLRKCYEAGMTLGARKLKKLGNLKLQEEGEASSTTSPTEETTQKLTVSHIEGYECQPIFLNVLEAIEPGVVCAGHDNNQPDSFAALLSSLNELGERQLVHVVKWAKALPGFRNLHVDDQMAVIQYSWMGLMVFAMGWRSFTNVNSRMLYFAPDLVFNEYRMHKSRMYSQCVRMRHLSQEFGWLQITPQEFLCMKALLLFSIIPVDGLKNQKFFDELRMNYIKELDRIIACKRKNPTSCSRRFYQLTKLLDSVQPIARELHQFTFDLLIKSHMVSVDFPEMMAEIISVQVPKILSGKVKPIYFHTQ
Chain of UniProt P03372 (P03372 whole entry, looked up): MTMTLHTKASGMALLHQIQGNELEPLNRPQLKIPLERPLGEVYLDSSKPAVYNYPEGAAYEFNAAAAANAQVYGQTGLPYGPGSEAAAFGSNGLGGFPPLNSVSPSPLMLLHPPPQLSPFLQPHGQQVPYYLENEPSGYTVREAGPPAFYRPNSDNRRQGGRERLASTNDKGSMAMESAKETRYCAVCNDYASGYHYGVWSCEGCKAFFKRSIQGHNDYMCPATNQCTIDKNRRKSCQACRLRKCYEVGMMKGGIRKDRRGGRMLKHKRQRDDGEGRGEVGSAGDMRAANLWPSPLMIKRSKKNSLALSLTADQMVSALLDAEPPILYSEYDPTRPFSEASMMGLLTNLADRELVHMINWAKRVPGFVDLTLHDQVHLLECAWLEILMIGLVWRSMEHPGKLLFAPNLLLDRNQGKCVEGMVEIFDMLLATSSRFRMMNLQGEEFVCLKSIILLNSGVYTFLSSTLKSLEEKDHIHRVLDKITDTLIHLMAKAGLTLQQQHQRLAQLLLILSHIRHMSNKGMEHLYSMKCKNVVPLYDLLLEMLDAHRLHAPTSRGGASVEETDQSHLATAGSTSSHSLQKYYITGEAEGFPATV

## CC(C)Cn1cnc2c(N)nc3ccccc3c21
[1]
  Potency: inconclusive: 5.22 µM [cytotoxic, partial curve]
[2]
  Potency: inconclusive: 11.7 µM [cytotoxic, partial curve, poor fit]
[3]
  Potency: inconclusive: 13 µM [inhibitor, single point]
[4]
  Potency: inconclusive: 0.73 µM [inhibitor, full curve]

## CO[C@@]12[C@H](COC(N)=O)C3=C(C(=O)C(C)=C(N)C3=O)N1C[C@@H]1N[C@@H]12
[1]
  Potency: inconclusive: 1.34 µM [cytotoxic, full curve]
[5]
  Potency: inconclusive: 26.6 µM [cytotoxic]
[6]
  Potency: inconclusive: 21.1 µM [cytotoxic, partial curve]
[4]
  Potency: active: 0.298 µM
[7]
  Potency: inactive

## [Cu+]
[1]
  Potency: inconclusive: 54.9 µM [rising, single point]
[8]
  Potency: inactive

## COc1cc(/C=C/c2ccccc2)oc(=O)c1
[1]
  Potency: inconclusive: 35.9 µM [cytotoxic, partial curve]
[9]
  Potency: inactive
[10]
  Potency: active: 2.52 µM

## COc1cc(NCc2ccc3nc(N)nc(N)c3c2C)cc(OC)c1OC
[1]
  Potency: inconclusive: 0.0477 µM [cytotoxic, full curve]
[2]
  Potency: inconclusive: 7.56 µM [cytotoxic, partial curve, poor fit]
[4]
  Potency: inconclusive: 6.68 µM [inhibitor, partial curve]

## CS(=O)(=O)Nc1ccc([N+](=O)[O-])cc1Oc1ccccc1
[1]
  Potency: inactive
[11]
  Potency: inconclusive: 24.5 µM [cytotoxic, partial curve] and inconclusive: 23.9 µM [cytotoxic, partial curve]
[5]
  Potency: inconclusive: 30.6 µM [cytotoxic, full curve] and inconclusive: 18.8 µM [cytotoxic, partial curve, poor fit]
[12]
  Potency: inconclusive: 48.6 µM [cytotoxic, partial curve]
[6]
  Potency: inconclusive: 30.6 µM [cytotoxic, partial curve] and inconclusive: 11.9 µM [cytotoxic, partial curve]
[13]
  Potency: inconclusive: 30.6 µM [cytotoxic, partial curve] and inconclusive: 23.7 µM [cytotoxic, partial curve, poor fit]

## Cc1nc(N)nc(N)c1-c1ccc(Cl)c(Cl)c1
[1]
  Potency: inconclusive: 0.952 µM [cytotoxic, full curve]
[2]
  Potency: inconclusive: 12 µM [cytotoxic, partial curve, poor fit]
[4]
  Potency: inconclusive: 13.3 µM [inhibitor, partial curve]

## COc1ccc(C(=O)c2ccccc2O)c(O)c1
[1]
  Potency: inconclusive: 34.6 µM [cytotoxic, partial curve]
[2]
  Potency: inconclusive: 34.6 µM [cytotoxic, partial curve]
[6]
  Potency: inconclusive: 21.6 µM [cytotoxic, partial curve]
[13]
  Potency: inconclusive: 48.4 µM [cytotoxic, partial curve]
[4]
  Potency: active: 17.2 µM
[7]
  Potency: inconclusive: 8.61 µM [rising, full curve]

## CC(C)(C)c1cc(CO)cc(C(C)(C)C)c1O
[1]
  Potency: inconclusive: 44.5 µM [cytotoxic, partial curve]
[2]
  Potency: inconclusive: 39.6 µM [cytotoxic, partial curve]
[14]
  Potency: inconclusive: 69.9 µM [inhibitor, single point]
[4]
  Potency: inconclusive: 69.9 µM [inhibitor, single point]

## c1ccc(CNc2ncnc3c2ncn3C2CCCCO2)cc1 (stereo unspecified)
[1]
  Potency: inconclusive: 27.5 µM [cytotoxic, partial curve]
[2]
  Potency: inconclusive: 24.5 µM [cytotoxic, partial curve]
[15]
  Potency: inconclusive: 61.1 µM [inhibitor, partial curve]
[10]
  Potency: inconclusive: 27.3 µM [activator, partial curve, poor fit]

## COc1ccc(CCN(C)CCCC(C#N)(c2cc(OC)c(OC)c(OC)c2)C(C)C)cc1OC (stereo unspecified)
[1]
  Potency: active: 21.3 µM
[2]
  Potency: active: 21.3 µM
[5]
  Potency: inconclusive: 13.3 µM [cytotoxic, partial curve]
[16]
  Potency: active: 5.62 µM
[13]
  Potency: inconclusive: 13.3 µM [cytotoxic, partial curve]
[4]
  Potency: inconclusive: 13.3 µM [inhibitor, partial curve]
